The whole screen tested about 310,000 compounds, of which about 2,200 (0.71%) showed an effect of 50% or more. Effects have a minus sign here. The list shows a part of the results.
Biological target: human ether-à-go-go-related gene (hERG) potassium channel (human, UniProt Q12809)
Assay: primary screen, population patch clamp on CHO cells stably expressing hERG

Chain of human ether-à-go-go-related gene (hERG) potassium channel (Q12809 whole entry, looked up): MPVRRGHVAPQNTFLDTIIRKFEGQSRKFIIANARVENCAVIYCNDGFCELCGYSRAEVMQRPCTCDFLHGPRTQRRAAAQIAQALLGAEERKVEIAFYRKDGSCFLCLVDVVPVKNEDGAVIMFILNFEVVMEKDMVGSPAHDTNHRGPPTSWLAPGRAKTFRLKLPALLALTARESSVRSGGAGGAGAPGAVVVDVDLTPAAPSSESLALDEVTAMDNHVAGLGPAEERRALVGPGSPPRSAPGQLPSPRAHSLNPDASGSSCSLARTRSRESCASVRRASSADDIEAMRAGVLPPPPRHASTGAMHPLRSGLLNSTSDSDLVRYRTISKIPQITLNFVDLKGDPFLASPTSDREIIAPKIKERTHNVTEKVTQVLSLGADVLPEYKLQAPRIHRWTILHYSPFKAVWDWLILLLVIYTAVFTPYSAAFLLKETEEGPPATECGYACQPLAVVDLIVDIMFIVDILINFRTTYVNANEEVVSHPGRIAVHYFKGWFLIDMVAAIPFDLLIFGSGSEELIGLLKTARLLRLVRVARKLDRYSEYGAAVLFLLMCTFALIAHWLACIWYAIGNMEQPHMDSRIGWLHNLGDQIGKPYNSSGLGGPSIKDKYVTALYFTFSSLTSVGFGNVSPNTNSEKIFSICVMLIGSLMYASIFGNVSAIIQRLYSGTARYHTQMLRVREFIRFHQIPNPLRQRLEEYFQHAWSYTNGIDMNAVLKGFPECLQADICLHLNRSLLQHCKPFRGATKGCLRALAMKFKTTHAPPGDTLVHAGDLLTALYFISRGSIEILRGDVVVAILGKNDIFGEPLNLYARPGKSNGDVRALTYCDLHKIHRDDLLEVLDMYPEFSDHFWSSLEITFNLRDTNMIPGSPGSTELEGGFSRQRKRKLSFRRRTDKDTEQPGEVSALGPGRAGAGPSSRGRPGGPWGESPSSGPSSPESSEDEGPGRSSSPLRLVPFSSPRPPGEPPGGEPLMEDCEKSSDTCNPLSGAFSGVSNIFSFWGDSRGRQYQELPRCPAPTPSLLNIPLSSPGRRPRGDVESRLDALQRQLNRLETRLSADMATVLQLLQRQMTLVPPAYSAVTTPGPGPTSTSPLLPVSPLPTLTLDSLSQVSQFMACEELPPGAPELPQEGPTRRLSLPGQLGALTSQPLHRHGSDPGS

Row | Compound | hERG current change (%, negative = inhibition) at 1uM [%]
1 | Cc1cccc(OCC(=O)Nc2nccs2)c1C | 8.63
2 | O=C1NC(=O)/C(=C/c2cc3c(cc2Br)OCO3)S1 | 10.1
3 | COc1ccc(C)cc1-n1ccn(CC(=O)Nc2ccc(Br)cc2F)c(=O)c1=O | 3.64
4 | O=C(Nc1ccccc1)c1ccc(=O)n(Cc2cccc(Cl)c2)c1 | 5.97
5 | Cc1scc(C(=O)N2CCN(c3ccc(Cl)cc3)CC2)c1C | 3.45
6 | COc1ccc(-c2nc(N)n(C(=O)c3ccccc3Cl)n2)cc1 | 13.4
7 | COc1ccc(CCNc2nc(C)nc3c2nnn3Cc2ccccc2)cc1OC | 11.1
8 | COc1cc(N2C(=O)CSC23C(=O)Nc2ccccc23)cc(OC)c1OC (stereo not shown) | 5.55
9 | Cl.Oc1cccnc1CCc1ccccc1 | 7.98
10 | COCCCN1CCc2[nH]c(=S)[nH]c(=O)c2C1 | 15.8
11 | CCCCn1c(=O)n(Cc2cccc(F)c2)c(=O)c2c1ncn2Cc1ccco1 | 4.42
12 | Cc1cc(C)c2c(CN3CCN(CCO)CC3)cc(=O)oc2c1 | -32.7
13 | COc1cc(SC)ccc1C(=O)Nc1nc(C)cs1 | 5.52
14 | Cc1cc([N+](=O)[O-])ccc1NC(=S)NC(=O)Cc1ccccc1 | 10.3
15 | O=C(CCCCn1c(=O)[nH]c2ccccc2c1=O)NCCc1c[nH]c2ccccc12 | 7.75
16 | CNC(=O)C1CN(C(=O)c2cccc(S(=O)(=O)N3c4ccccc4CC3C)c2)c2ccccc2O1 (stereo not shown) | 8.58
17 | O=c1oc2ccc(C#CC3(O)CCCCC3)cc2cc1-n1cc(C2(O)CCCCC2)nn1 | 21.5
18 | COC(C(=O)Nc1ccc(C(N)=O)cc1)c1ccccc1 (stereo not shown) | 16.9
19 | Cc1c(C(=O)O)c(-c2ccccc2)nn1-c1ccccc1 | 10.8
20 | O=c1c2sc(-c3ccccc3)cc2nc2n1CCCCC2 | 8.88

Row | Compound | hERG current change (%, negative = inhibition) at 1uM [%]
21 | C[N+](C)(C)CCOC(N)=O.[Cl-] | 16.2
22 | O=C(O)CCC(=O)Nc1ccc(-c2nnc(-c3ccco3)o2)cc1 | 14.2
23 | Cc1ccc2nsnc2c1NC(=S)NC(=O)c1ccco1 | 7.33
24 | CC(=O)c1cccc(NC(=O)C(C)OC(=O)c2cccc(-n3cnnn3)c2)c1 (stereo not shown) | -11
25 | O=[N+]([O-])c1ccc(N2CCOCC2)cc1SCc1ccco1 | -4.94
26 | CC(/C=C/c1ccccc1)=N\Nc1nc(C)cc(C)n1 | 3.96
27 | CC(C)[C@H](NC(=O)N1CC(=O)Nc2ccccc21)C(=O)N1CCC(C(=O)O)CC1 | 13.7
28 | O=Cc1c(-c2ccccc2)cc2oc3ccccc3cc1-2 | 17.7
29 | COc1ccc(NC(=O)NCCCCc2ccccc2)c(OC)c1 | 18.3
30 | CNC(=S)/N=C/NOCc1ccc(Cl)cc1Cl | 6.22
31 | Cc1scc(C(=O)NCc2ccco2)c1-c1ccccc1 | 6.99
32 | Cc1cc(NC(=O)CCC(=O)N(CC(=O)NCC2CCCO2)c2ccccc2)no1 (stereo not shown) | 22.4
33 | O=C(NC(=S)NNC(=O)c1ccccc1O)c1ccccc1 | 19
34 | Cc1nc2ccccn2c1C(=O)/C=C/c1cccc([N+](=O)[O-])c1 | -8.89
35 | O=C(COC(=O)c1ccc[nH]c1=O)NC1CCCCCCC1 | 13
36 | CCOC(=O)NC(NC(=S)Nc1ccccc1[N+](=O)[O-])C(Cl)(Cl)Cl (stereo not shown) | 5.35
37 | CCOC(=O)CN1C(=O)N[C@@H](c2cccc(C(F)(F)F)c2)C(C(C)=O)=C1C | 14.3
38 | O=C(/C=C/c1c(F)cccc1Cl)Nc1ncccn1 | 13.3
39 | O=S(=O)(O)c1nc2ccccc2[nH]1 | 8.27
40 | COc1ccccc1N1C(=O)C(Cl)=C(N2CCCC2)C1=O | 6.4

Row | Compound | hERG current change (%, negative = inhibition) at 1uM [%]
41 | O=C(Cn1cnc2c(NC(=O)OCc3ccccc3)ncnc21)NCc1ccccn1 | 0.393
42 | O=C(NCC(=O)N1CCCC(C(F)(F)F)C1)c1ccc2ccccc2c1 (stereo not shown) | 0.745
43 | O=C1C2C3C=CC(C3)C2C(=O)N1c1ccc(S(=O)(=O)Nc2nccs2)cc1 (stereo not shown) | 17.3
44 | COc1cc(/C=N/N=C(\N)c2nonc2N)cc(OC)c1OC | 4.18
45 | O=C(Cc1c(C(=O)O)[nH]c2ccccc12)NCCN1CCN(c2ccccc2F)CC1 | -1.98
46 | NS(=O)(=O)c1ccc2nc(NC(=O)Nc3ccc(F)cc3)sc2c1 | 1.36
47 | O=C(c1ccc(C(F)(F)F)cc1)N1CCN(S(=O)(=O)c2ccc3c(c2)OCCCO3)CC1 | 12
48 | COc1cccc(NC(=O)CC2COc3ccccc3O2)c1 (stereo not shown) | 15.6
49 | Cc1ccc(S(=O)(=O)c2nc(NN(C)C)sc2Cl)cc1 | 8.76
50 | COc1ccc(Cl)cc1NC(=S)Nc1ccccc1F | 13.9
51 | CCc1ccc(C(=O)NCc2ccc(Cl)cc2Cl)cc1 | 5.29
52 | Cc1ccc(NC(=O)Cc2c[nH]c3ccccc23)cc1S(=O)(=O)N1CCCCCC1 | 18.4
53 | CN(CC(=O)Nc1cccc(F)c1)C(=O)C1(c2ccccc2)CC1 | 23.4
54 | Cc1ccc(S(=O)(=O)NCC(=O)NCC(=O)N2CCC(C)CC2)cc1 | 10.8
55 | COc1ccc(-c2cc(C(F)(F)F)n3nc(C(=O)N4CCOCC4)c(Cl)c3n2)cc1 | -0.812
56 | CC1=CC(C)C2C(=O)N(CCC[N+](C)(C)C)C(=O)C2C1.[I-] (stereo not shown) | 12
57 | CC(C)n1ncc2c(C(=O)Nc3cccc(S(=O)(=O)N(C)C)c3)cc(C3CC3)nc21 | -0.375
58 | COC(=O)c1ccc(CSc2nc3ccccc3c(=O)n2N)cc1 | 15.8

Reference: PMC4336329 (PLoS ONE, 2015)
